The text below walks through data of publication PMC8665361.

Sequences of proteins named here, by UniProt entry; tags and fusion partners are left off. A change or cut given only in a name is not applied to a line headed by its entry.
UniProt Q14790: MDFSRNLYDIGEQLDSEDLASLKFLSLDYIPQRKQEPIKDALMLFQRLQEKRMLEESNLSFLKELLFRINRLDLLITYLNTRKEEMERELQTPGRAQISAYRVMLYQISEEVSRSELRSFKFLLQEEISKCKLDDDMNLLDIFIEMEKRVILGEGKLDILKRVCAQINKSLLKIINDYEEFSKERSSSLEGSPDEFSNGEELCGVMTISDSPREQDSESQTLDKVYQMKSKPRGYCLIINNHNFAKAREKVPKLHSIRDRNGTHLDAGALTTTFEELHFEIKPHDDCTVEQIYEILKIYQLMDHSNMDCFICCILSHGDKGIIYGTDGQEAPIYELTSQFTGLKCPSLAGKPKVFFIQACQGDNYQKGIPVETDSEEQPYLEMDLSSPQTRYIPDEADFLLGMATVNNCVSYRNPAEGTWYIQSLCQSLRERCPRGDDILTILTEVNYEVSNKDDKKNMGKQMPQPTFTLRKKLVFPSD
UniProt P98177: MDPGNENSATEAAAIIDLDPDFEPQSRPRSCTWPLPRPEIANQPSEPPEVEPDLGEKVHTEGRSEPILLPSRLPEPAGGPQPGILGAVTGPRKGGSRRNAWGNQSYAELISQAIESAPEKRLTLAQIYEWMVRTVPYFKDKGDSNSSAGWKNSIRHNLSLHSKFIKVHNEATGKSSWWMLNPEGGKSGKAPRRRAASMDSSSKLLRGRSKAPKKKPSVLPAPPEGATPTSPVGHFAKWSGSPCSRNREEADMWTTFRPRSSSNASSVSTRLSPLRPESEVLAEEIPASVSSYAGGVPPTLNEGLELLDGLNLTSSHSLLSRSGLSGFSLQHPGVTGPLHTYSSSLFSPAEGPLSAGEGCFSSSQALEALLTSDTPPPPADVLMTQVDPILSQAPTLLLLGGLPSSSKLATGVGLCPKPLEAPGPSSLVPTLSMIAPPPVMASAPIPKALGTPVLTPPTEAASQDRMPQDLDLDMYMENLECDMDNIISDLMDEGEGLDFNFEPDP

The target in one test is HA-caspase 8-C360S (UniProt Q14790). In words: co-IP; HEK293 cells transfected 24 h with HA-caspase 8-C360S and/or FLAG-FOXO4; IP with anti-HA, blot with indicated antibodies.
Test [1] has as its target T1, endogenous FBXO7 (HEK293 cells) (human (endogenous in HEK293)) (UniProt Q9Y3I1).
T1 sequence: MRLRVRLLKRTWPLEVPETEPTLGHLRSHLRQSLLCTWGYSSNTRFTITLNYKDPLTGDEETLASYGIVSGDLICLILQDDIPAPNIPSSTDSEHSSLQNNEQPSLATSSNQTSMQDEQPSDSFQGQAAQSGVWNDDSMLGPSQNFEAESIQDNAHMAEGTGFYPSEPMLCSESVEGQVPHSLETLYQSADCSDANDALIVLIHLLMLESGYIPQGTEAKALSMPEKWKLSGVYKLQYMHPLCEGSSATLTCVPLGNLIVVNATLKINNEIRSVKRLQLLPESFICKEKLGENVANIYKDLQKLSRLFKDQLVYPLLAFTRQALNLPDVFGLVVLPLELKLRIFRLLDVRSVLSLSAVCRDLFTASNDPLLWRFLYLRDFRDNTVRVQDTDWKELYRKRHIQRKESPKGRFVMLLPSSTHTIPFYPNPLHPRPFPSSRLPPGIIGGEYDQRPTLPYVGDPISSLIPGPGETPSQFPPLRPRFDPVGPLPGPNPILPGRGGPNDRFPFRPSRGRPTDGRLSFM
In words: co-IP; HEK293 cells transfected 24 h with FLAG- or HA-tagged catalytically inactive caspases; endogenous FBXO7; text: IP with anti-FLAG or anti-HA and blot with anti-FBXO7; legend: IP with anti-FBXO7.

Test [2] addresses T2, FLAG-tagged FBXO7 deletion mutant lacking the N-terminal region of amino acid 1-333 (human) (UniProt Q9Y3I1).
T2 sequence: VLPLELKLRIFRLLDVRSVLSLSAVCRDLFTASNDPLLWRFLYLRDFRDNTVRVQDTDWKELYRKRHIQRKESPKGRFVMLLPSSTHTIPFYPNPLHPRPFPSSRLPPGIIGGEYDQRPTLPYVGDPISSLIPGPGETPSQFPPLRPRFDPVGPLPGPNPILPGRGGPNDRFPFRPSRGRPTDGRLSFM
In words: co-IP; HEK293 cells transfected with caspase 8-V5/His and FLAG-FBXO7-WT or a deletion mutant; IP with anti-FLAG, blot with anti-V5; Fig. S3B.

The target of test [3] is T3, FLAG-tagged human wild-type FBXO7 isoform-1 (human) (UniProt Q9Y3I1).
T3 sequence: T1 sequence
The test is described as above.

The target in test [4] is T4, FLAG-tagged FBXO7 deletion mutant lacking the C-terminal region spanning amino acids 376-522 (human) (UniProt Q9Y3I1).
T4 sequence: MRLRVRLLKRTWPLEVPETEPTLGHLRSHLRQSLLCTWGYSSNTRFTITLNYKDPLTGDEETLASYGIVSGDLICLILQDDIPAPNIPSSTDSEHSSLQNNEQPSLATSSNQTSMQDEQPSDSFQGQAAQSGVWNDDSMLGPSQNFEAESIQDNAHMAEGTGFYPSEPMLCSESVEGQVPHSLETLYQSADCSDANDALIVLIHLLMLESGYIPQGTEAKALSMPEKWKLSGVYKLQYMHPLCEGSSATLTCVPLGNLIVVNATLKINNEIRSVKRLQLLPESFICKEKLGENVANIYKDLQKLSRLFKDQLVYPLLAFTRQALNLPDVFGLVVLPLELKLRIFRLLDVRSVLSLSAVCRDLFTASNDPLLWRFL
Described as above.

No constants are given. Whether binding was seen depends on the method and setting. Binding seen in cells or lysates may run through a third protein. Some binding calls cover weakened binding; strength is not graded here. For some assays here: Tags and fused reporters may be left off the sequences shown.

As to “FLAG-tagged human FOXO4 (from UniProt P98177 1-505)”, the binding entry with HA-caspase 8-C360S is on record as “binds”.

Consider “HA-caspase 8-C360S (from UniProt Q14790 1-479) (enzyme)”, for which the binding result in test [1] is listed as “binds”.

With “caspase 8-V5/His (from UniProt Q14790 1-479) (enzyme)”, the binding entry in test [2] is recorded as “no binding”; in test [3] it was “binds”; in test [4], “binds”.
